In the RNAGym collection of RNA variant scans (doi:10.1101/gad.245936.114):
Variants at the background level are over-represented here.

B1: tRNA (parent)
chain: CUCUCGGUAGCCAAGUUGGUUUAAGGCGCAAGACUUUAAUUUAUCACUACGAAAUCUUGAGAUCGGGCGUUCGACUCGCCCCCGGGAGAUUUUUUCCUCGAGCAA

Variants of: B1
Assay: nonsense suppression (GFP-seq) (ratio to wild type); higher = more function; SUP4oc tRNA, yeast GFP reporter sort-seq
How it was run: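 Each variant's nonsense suppression (GFPSEQ) is a cell-share-weighted bin median GFP/RFP relative to the unmutated parent tRNA. Yeast with genome-integrated tRNA variants from a ~3% random-mutation library, a galactose-driven GFP ochre reporter and RFP were grown in raffinose/galactose medium with 80 mg/L adenine, then sorted into GFP/RFP bins for Illumina sequencing. Variants needed ≥100 reads and ≥30 cells.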

Nonsense suppression, ≤ 0.026:
U2G G19U
C3G G61U G67C
C3A U17A G59U
C3G C81A
U2G G19C U22C C68A
C3A U8A G10A U63C
C3G A13U U57C G65A
U2G U55A C81A
C3A C12G
C3G C56G U63C G69U G84A A87C
C3A G6U
U2G A14G G61U
U2G C11A G84C
U2G C80U
C3A G66U G67U A87G
U2G A9C G10C G66C
C3A U58G
C3G G10A G61U C75A C81A
C3G C82G
C3A A24U G25C
C3A G85C
C3A C12U G15U U71A U76A
U2G U4G G7A C56G
C3G C56A
C3G C56G
U2G A30U A60C
C3G A33C G59A A74C
C3G C34U
C3A C5G G15C A24U G66C G78C
C3A A33U A60U
U2G A31C G32U U57C
C3G A33U A62G
U2G C56U
U2G C56G C83A
C3A U70G U76C
C3A A13U C29G A89U
C3A C12G C27G G88U
C3A G6A U71G
C3A U76C G78C
U2G C56U G61C U71G
C3A U20A U22G C56A C80G
C3A G7U A23C U55C A62C
C3A G6C G28U
C3A U57C
U2G A54G A62C G85A A89G
C3A C29A U58G A87G
C3G G10C C12G A33G
U2C U22C C56U U58A U76G
C3A U63G
U2G G26C G86A
C3A C29G A60C C81G
U2G U57G
U2C U70G
U2G U20A U63C U76C
C3G C29A G73U C75U
C3G C11A U57C C81A
U2C U58A G86C
C3A C29A G84U
U2G C34A A62G
U2G G59A G69A
C3A C5G U57C U70A C80A
C3A U8A A23C G69C G73A
C3A A62U
C3G A33U
C3G A33C
C3A C56A
C3A G69A
C3A G69U
U2G U63A U71G G84U
C3A C11G C12G G69U A89U
U2G G6U G85U
C3G C27U U63G C83U G85A
C3A A14U
U2C U55C C77A
C3A A9G G61A
C3A A60C
U2G G26C G65C C77U
C3A A62C C75G
C3A A9G
U2C U22C A23U C34U
C3A G7U A24G C68G G78U
U2G A23U U58G
C3A U4G C75U G86A
U2G A60U
U2G U76C C79A
C3G A13G
C3A U16A G66C C68A
C3A G10U U21A C79U
C3A U4G G15U C80A
C3A C5G U35A U57C G59U G61C G66U
C3G A24C A89C
U2G G10U U63G G84C
U2G G18U G26U C75A
U2G A31C C75A
C3G C5U C12U U70G U71G
C3G A9U A24C G65C
C3A A31G A54C
C3G A24G G59U
U2C U21C A62C G66C
U2G C29A A30C G85U
U2G U17A G25U G65A
C3A U35C
C3A U35G
C3A G19C
C3A G19U
U2G A13C G66U
C3G A31G C81G C82A
C3G A31C G59A
C3G A14U G86C
C3A C29G
C3G G6C A30G U76A A89C
C3G C64U C80A
C3A A24G U70C
U2G U4A
U2G A23G C27U U70C C75A
C3A U16C A30C U58A U70G U71C
C3A C5A U63A
U2G U4G C79A G85C
C3A U20C G25C
C3G C29A C82G C83U
C3A C11G U57A U76A C79U
C3A C27A
C3A A23C G61A G73A
C3A C12G C80A
C3A U8G
C3A G66U A87U
C3A U63G U70G
U2G C11G C83U G85C
C3A U17G
C3A U17C
C3A U16G G84U
C3A A24U C83G
U2G A14C G84C
C3G A14C U35G G88C
U2G C11U U21G
U2G U16A C81A
U2G C34U U76G G85C
C3G A30U G61U A62G
C3G G10C A24U C29A G86C
U2G U8A C12A A30G G59U G88C
U2G C64U C82G
C3A C5U C12G G59C
C3G A31U C72G
C3G A54C G86U
U2G C34G A87G
U2G U8A A87G
C3G G6C U20A U35C U58C G61U U63C
U2C U71G
U2G C3U
U2G C5U C27U U35G
U2G C29A A54C
U2G A31U
U2G A13G A60U
C3A U20G C56G
U2G A9U G67C
U2G C11U
C3A G65A C68U G86U
C3A G66C
C3A A9U A60U U76A C79G
C3A A14U A24C C34G G61A C75U U76C A89C
C3G G66C
C3A A33U C79U
U2G C29U
C3A A62U C64G U76G
U2G U55A
U2G U55G
C3G A9G G73C
U2G C34U G86U
C3A C29G G66A C81G G85C
C3A A13U U21C
U2G U8A G10A G69U G78C
U2G C3G A54U U76C
C3G A13C U70G
U2G G61U G67C
C3G A89C
U2G G15U C68U
C3A G78U
C3A A13G G86U A87G
U2G C3U C27U
U2G A9G U55G
U2G A33U U55G G73A
U2G C79U
U2G C12U C29U G61C
U2G U16G U22G A23U
C3G C5A G19U
C3A U57C C80G
C3A A31U G69U
U2G U55A G85U
C3A U4C C12G U16G G69U
C3G G7C G26U
U2G C83G
C3G C29U
C3G G25U
U2G G59C G85C
C3G G15A A62C
U2G G86C
U2G U57C C72A
U2G U17G G19U A23C G86C
U2G U8C U17C
C3A G59U G78C
C3G A74C
C3G A74G
C3A C34A U58A
U2G G6A G18U C29G G61A G65A
U2G G7U C27A G28U
C3A U21A G69C
U2G U70C
U2G U70G
C3G C72U
C3G A23U C27U A89U
C3A G66C G86A
C3G C12U U22A C27U C29G U63C C75A
C3A G32A
C3G A9U U16C
C3A U16G C29U G61U U71G
C3A C29A U70G
U2G C34A U57C
C3G C5U G32U U55G
U2G G18U C34G
C3A U17G A31U C34A
C3A U4A G10C A30C
U2G G15U C81G A89G
C3A A13C G84C
C3G A60C
C3A A30G A31U C75U
C3A A14U U17A A62U
U2G G25U G73C C79G
U2G G6C G18A G67C G86A A87U
U2G G6C G18A G67C G86A A87G
C3G G65C G78A
C3A C5U G7A A9G A14U G59U G86C
C3G A14C U63G
C3G G19A A23U U58A G65C G78A
C3A U58G C64U G67A C79U
C3A A31C C79G
C3A A31C C79A
U2G C77U
U2G C77A
U2G C68A
C3G A24G
C3G A24U
U2G G61C G65C A89U
U2G G28A A54G C68G
C3G A9U U55C
C3A U4C A62G
C3A U4G A14G U20C A24G
C3A G28A G73A A74G
C3A A31C U35C G65C
U2G G67U
U2G G67C
C3A G67U
C3G A23C
C3A U8C U22G A74G
U2G A24G A89C
U2G A31G A33G U57A G66A
C3A G10A A30U
C3A A9U A13C G66C U71A
U2G A24C G61C
C3A G19U C81A
U2C U35A
C3A C5A A23U A62C
C3A C81G
U2G C11U U55G A60U C82G G86C G88U
C3A G7U
C3A A23C G78A
C3G G7U C64G A89G
C3G C68U
C3G A33C C79G
C3A G6U U35G U71A
C3A A62C U63A U76G
C3G G18A G32C U76C C77U C80G
C3A U22C G26U C80A
C3G A24U U35A G65C C77G
U2G A87G
C3G G26C
U2G A31G G78A
U2G U8C U22G G61U
U2G A23U
C3G C34G C77A
C3A U20C U55C
U2G G7C C29G G65C
C3A G69A A87C
C3G G65C C79U
U2G G6U G10U
C3A G28U G65C
C3G G6C U8C A30C U71C
C3G A14U A31G
C3G G59U G67A
C3A A24G G32C A89U
C3A U35G U57G G69C C72G
U2G G28A A62C U63A U71C A87U
U2G U4A C68A
C3A A23C
U2G G7C C34U G65C
C3A A33U
U2G A31G G69A C80U C81A
C3G C5A C34A U70G G73U G84U
C3A C12A A23G C80G
C3A C56A G65A
U2G U16C A24G
C3A G65A
U2G U8A
C3A U20G A33G
C3A C29A G73A
U2C U58A A60C
C3A G84C
C3A G73C G85A
U2G A89G
C3A G19U A24G
C3A U63C G73U C79G
C3A U63C G73U C79U
U2G C12A U57A C68G
U2G G25A G73A G85A
C3A U4A A62G
U2G G59A
C3A C79U
C3A G6U G7A
C3G C27A C83A G86C
C3A A13G
C3A U4A A24U
C3G A23G G59C A62U U63C G66C
C3A C12A U70C
U2G C5A A23C A30C U35C C64A
C3G G59C G84U
U2G C12U G61C
C3G G65C
C3A U17A A23G U35G C77A

Nonsense suppression, 0.783:
C3G G7A C56G C79G

Nonsense suppression, 0.0638:
U2G A13U

Nonsense suppression, 0.191:
C3A U4C

Nonsense suppression, 0.0435:
U2C U17A

Nonsense suppression, 0.203:
U2C U21C

Nonsense suppression, 0.344:
C3G G15C U58G G88C

Nonsense suppression, 0.0677:
U2G A9U
